{"source": "the supplement of paper PMC8728848", "binders": {"B1": {"name": "Langerin CRD (Homo sapiens), Q9UJ71 (protein)", "chain": "QVVSQGWKYFKGNFYYFSLIPKTWYSAEQFCVSRNSHLTSVTSESEQEFLYKTAGGLIYWIGLTKAGMEGDWSWVDDTPFNKVQSVRFWIPGEPNNAGNNEHCGNIKAPSLQAWNDAPCDKTFLFICKRPYVPSEPSAWSHPQFEK"}}, "experiment_in_all_cases": "glycan array binding signal (z-score within array); higher = stronger binding", "conditions_in_all_cases": "glycan notation: IUPAC condensed, linker removed", "key": {"Gal3S(b1-4)GlcNAc": {"target": "Gal3S(b1-4)GlcNAc", "outline": "(§1)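 The Consortium for Functional Glycomics database supplied 3228 glycan arrays, of which those lacking an available protein sequence were dropped. The binding signal, a within-array Z-score, was averaged across arrays of the same protein sequence and across linkers. Negative scores can be read as non-binding.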"}, "Gal3S(b1-4)GlcNAc6S": {"target": "Gal3S(b1-4)GlcNAc6S", "outline": "as §1"}, "[1]": {"target": "Gal3S(b1-4)[Fuc(a1-3)]Glc", "outline": "as §1"}, "Gal3S4S(b1-4)GlcNAc": {"target": "Gal3S4S(b1-4)GlcNAc", "outline": "as §1"}, "Gal3S6S(b1-4)GlcNAc": {"target": "Gal3S6S(b1-4)GlcNAc", "outline": "as §1"}, "Gal3S6S(b1-4)GlcNAc6S": {"target": "Gal3S6S(b1-4)GlcNAc6S", "outline": "as §1"}, "Gal4S(b1-4)GlcNAc": {"target": "Gal4S(b1-4)GlcNAc", "outline": "as §1"}, "Gal4S6S(b1-4)GlcNAc": {"target": "Gal4S6S(b1-4)GlcNAc", "outline": "as §1"}, "Gal6S(b1-4)Glc": {"target": "Gal6S(b1-4)Glc", "outline": "as §1"}, "Gal6S(b1-4)Glc6S": {"target": "Gal6S(b1-4)Glc6S", "outline": "as §1"}, "Gal6S(b1-4)GlcNAc": {"target": "Gal6S(b1-4)GlcNAc", "outline": "as §1"}, "Gal6S(b1-4)GlcNAc6S": {"target": "Gal6S(b1-4)GlcNAc6S", "outline": "as §1"}, "GalNAc(a1-3)Gal": {"target": "GalNAc(a1-3)Gal", "outline": "as §1"}, "GalNAc(a1-3)GalNAc": {"target": "GalNAc(a1-3)GalNAc", "outline": "as §1"}, "GalNAc(b1-3)Gal": {"target": "GalNAc(b1-3)Gal", "outline": "as §1"}, "[2]": {"target": "GalNAc(b1-3)Gal(a1-4)Gal(b1-4)GlcNAc", "outline": "as §1"}, "GalNAc(b1-3)GalNAc": {"target": "GalNAc(b1-3)GalNAc", "outline": "as §1"}, "GalNAc(b1-4)GlcNAc": {"target": "GalNAc(b1-4)GlcNAc", "outline": "as §1"}, "Glc(a1-4)Glc": {"target": "Glc(a1-4)Glc", "outline": "as §1"}, "Glc(a1-6)Glc(a1-6)Glc": {"target": "Glc(a1-6)Glc(a1-6)Glc", "outline": "as §1"}, "Glc(b1-4)Glc": {"target": "Glc(b1-4)Glc", "outline": "as §1"}, "Glc(b1-6)Glc": {"target": "Glc(b1-6)Glc", "outline": "as §1"}, "GlcA(b1-3)Gal": {"target": "GlcA(b1-3)Gal", "outline": "as §1"}, "GlcA(b1-3)GlcNAc": {"target": "GlcA(b1-3)GlcNAc", "outline": "as §1"}, "GlcA(b1-6)Gal": {"target": "GlcA(b1-6)Gal", "outline": "as §1"}, "[3]": {"target": "GlcNAc(a1-3)Gal(b1-4)GlcNAc", "outline": "as §1"}, "[4]": {"target": "GlcNAc(a1-6)Gal(b1-4)GlcNAc", "outline": "as §1"}, "[5]": {"target": "GlcNAc(b1-2)Gal(b1-3)GalNAc", "outline": "as §1"}, "[6]": {"target": "GlcNAc(b1-2)Man(a1-3)[GlcNAc(b1-2)Man(a1-6)]Man(b1-4)GlcNAc(b1-4)GlcNAc", "outline": "as §1"}, "GlcNAc(b1-3)Gal": {"target": "GlcNAc(b1-3)Gal", "outline": "as §1"}, "[7]": {"target": "GlcNAc(b1-3)Gal(b1-3)GalNAc", "outline": "as §1"}, "GlcNAc(b1-3)Gal(b1-4)Glc": {"target": "GlcNAc(b1-3)Gal(b1-4)Glc", "outline": "as §1"}, "[8]": {"target": "GlcNAc(b1-3)Gal(b1-4)GlcNAc", "outline": "as §1"}, "[9]": {"target": "GlcNAc(b1-3)Gal(b1-4)GlcNAc(b1-3)Gal(b1-4)GlcNAc", "outline": "as §1"}, "GlcNAc(b1-3)GalNAc": {"target": "GlcNAc(b1-3)GalNAc", "outline": "as §1"}, "GlcNAc(b1-3)Man": {"target": "GlcNAc(b1-3)Man", "outline": "as §1"}, "[10]": {"target": "GlcNAc(b1-3)[GlcNAc(b1-4)][GlcNAc(b1-6)]GlcNAc", "outline": "as §1"}, "[11]": {"target": "GlcNAc(b1-3)[GlcNAc(b1-6)]Gal(b1-4)GlcNAc", "outline": "as §1"}, "[12]": {"target": "GlcNAc(b1-3)[GlcNAc(b1-6)]GalNAc", "outline": "as §1"}, "[13]": {"target": "GlcNAc(b1-4)Gal(b1-4)GlcNAc", "outline": "as §1"}, "GlcNAc(b1-4)GlcNAc": {"target": "GlcNAc(b1-4)GlcNAc", "outline": "as §1"}, "[14]": {"target": "GlcNAc(b1-4)GlcNAc(b1-4)GlcNAc", "outline": "as §1"}, "[15]": {"target": "GlcNAc(b1-4)GlcNAc(b1-4)GlcNAc(b1-4)GlcNAc(b1-4)GlcNAc", "outline": "as §1"}, "[16]": {"target": "GlcNAc(b1-4)GlcNAc(b1-4)GlcNAc(b1-4)GlcNAc(b1-4)GlcNAc(b1-4)GlcNAc", "outline": "as §1"}, "[17]": {"target": "GlcNAc(b1-4)[GlcNAc(b1-6)]GalNAc", "outline": "as §1"}}, "note": "The list shows a part of the results.", "data": [{"binder": "B1", "values": [{"measurement": "glycan array binding signal (z-score)", "setting": "Gal3S(b1-4)GlcNAc", "value": -0.527}, {"measurement": "glycan array binding signal (z-score)", "setting": "Gal3S(b1-4)GlcNAc6S", "value": -0.22}, {"measurement": "glycan array binding signal (z-score)", "setting": "[1]", "value": -0.252}, {"measurement": "glycan array binding signal (z-score)", "setting": "Gal3S4S(b1-4)GlcNAc", "value": -0.278}, {"measurement": "glycan array binding signal (z-score)", "setting": "Gal3S6S(b1-4)GlcNAc", "value": -0.421}, {"measurement": "glycan array binding signal (z-score)", "setting": "Gal3S6S(b1-4)GlcNAc6S", "value": -0.366}, {"measurement": "glycan array binding signal (z-score)", "setting": "Gal4S(b1-4)GlcNAc", "value": -0.279}, {"measurement": "glycan array binding signal (z-score)", "setting": "Gal4S6S(b1-4)GlcNAc", "value": -0.313}, {"measurement": "glycan array binding signal (z-score)", "setting": "Gal6S(b1-4)Glc", "value": 1.81}, {"measurement": "glycan array binding signal (z-score)", "setting": "Gal6S(b1-4)Glc6S", "value": 4.01}, {"measurement": "glycan array binding signal (z-score)", "setting": "Gal6S(b1-4)GlcNAc", "value": 2.06}, {"measurement": "glycan array binding signal (z-score)", "setting": "Gal6S(b1-4)GlcNAc6S", "value": 6.72}, {"measurement": "glycan array binding signal (z-score)", "setting": "GalNAc(a1-3)Gal", "value": -0.433}, {"measurement": "glycan array binding signal (z-score)", "setting": "GalNAc(a1-3)GalNAc", "value": -0.498}, {"measurement": "glycan array binding signal (z-score)", "setting": "GalNAc(b1-3)Gal", "value": 0.049}, {"measurement": "glycan array binding signal (z-score)", "setting": "[2]", "value": -0.356}, {"measurement": "glycan array binding signal (z-score)", "setting": "GalNAc(b1-3)GalNAc", "value": 2.47}, {"measurement": "glycan array binding signal (z-score)", "setting": "GalNAc(b1-4)GlcNAc", "value": -0.362}, {"measurement": "glycan array binding signal (z-score)", "setting": "Glc(a1-4)Glc", "value": -0.157}, {"measurement": "glycan array binding signal (z-score)", "setting": "Glc(a1-6)Glc(a1-6)Glc", "value": -0.188}, {"measurement": "glycan array binding signal (z-score)", "setting": "Glc(b1-4)Glc", "value": -0.315}, {"measurement": "glycan array binding signal (z-score)", "setting": "Glc(b1-6)Glc", "value": -0.395}, {"measurement": "glycan array binding signal (z-score)", "setting": "GlcA(b1-3)Gal", "value": -0.387}, {"measurement": "glycan array binding signal (z-score)", "setting": "GlcA(b1-3)GlcNAc", "value": 0.023}, {"measurement": "glycan array binding signal (z-score)", "setting": "GlcA(b1-6)Gal", "value": -0.619}, {"measurement": "glycan array binding signal (z-score)", "setting": "[3]", "value": 0.17}, {"measurement": "glycan array binding signal (z-score)", "setting": "[4]", "value": -0.124}, {"measurement": "glycan array binding signal (z-score)", "setting": "[5]", "value": 4.61}, {"measurement": "glycan array binding signal (z-score)", "setting": "[6]", "value": 1.27}, {"measurement": "glycan array binding signal (z-score)", "setting": "GlcNAc(b1-3)Gal", "value": 0.773}, {"measurement": "glycan array binding signal (z-score)", "setting": "[7]", "value": 0.953}, {"measurement": "glycan array binding signal (z-score)", "setting": "GlcNAc(b1-3)Gal(b1-4)Glc", "value": 2.31}, {"measurement": "glycan array binding signal (z-score)", "setting": "[8]", "value": 1.68}, {"measurement": "glycan array binding signal (z-score)", "setting": "[9]", "value": 0.437}, {"measurement": "glycan array binding signal (z-score)", "setting": "GlcNAc(b1-3)GalNAc", "value": 1.28}, {"measurement": "glycan array binding signal (z-score)", "setting": "GlcNAc(b1-3)Man", "value": 0.754}, {"measurement": "glycan array binding signal (z-score)", "setting": "[10]", "value": 0.916}, {"measurement": "glycan array binding signal (z-score)", "setting": "[11]", "value": 0.542}, {"measurement": "glycan array binding signal (z-score)", "setting": "[12]", "value": 2.21}, {"measurement": "glycan array binding signal (z-score)", "setting": "[13]", "value": 1.57}, {"measurement": "glycan array binding signal (z-score)", "setting": "GlcNAc(b1-4)GlcNAc", "value": 0.412}, {"measurement": "glycan array binding signal (z-score)", "setting": "[14]", "value": 0.701}, {"measurement": "glycan array binding signal (z-score)", "setting": "[15]", "value": -0.437}, {"measurement": "glycan array binding signal (z-score)", "setting": "[16]", "value": -0.424}, {"measurement": "glycan array binding signal (z-score)", "setting": "[17]", "value": 1.62}]}]}
